Laboratory results as given in the supplement of paper PMC12217912.
Some of the results follow. The full chains were built here from the parent and the listed change. Inactive controls read about 0.05.

B1: TEV protease; numbered along this chain (parent)
chain: MGESLFKGPRDYNPISSSICHLTNESDGHTTSLYGIGFGPFIITNKHLFRRNNGTLVVQSLHGVFKVKDTTTLQQHLVDGRDMIIIRMPKDFPPFPQKLKFREPQREERICLVTTNFQTKSMSSMVSDTSCTFPSGDGIFWKHWIQTKDGQCGSPLVSTRDGFIVGIHSASNFTNTNNYFTSVPKNFMELLTNQEAQQWVSGWRLNADSVLWGGHKVFMVKPEEPFQPVKEATQL

Variants of: B1
Assay: raw area under fraction-flipped curve 0-4 h after induction (AUC4h, not background-subtracted), DNA-recorder readout of cleavage of the substrate (dimensionless); higher = more cleavage of the substrate by the protease variant
Conditions: temperature: 34 °C; time window: 0-4 h after rhamnose induction
Procedure: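 In vivo DNA recorder in E. coli TOP10(DE3) ΔrhaA at 34 °C. Each TEVp single-site mutant (parent TEVp 0) is paired with a single-site variant of the 7-mer TEVs (canonical ENLYFQ|S). The substrate sits between flexible linkers in a Bxb1-sfGFP-TEVs-SsrA fusion, so cleavage stabilises Bxb1 and speeds flipping of a recombination array, read by NGS. The value is the raw area under the fraction-flipped curve over 0-4 h after rhamnose induction (AUC4h), with ≥20 reads per time point. It is not background-subtracted; inactive controls average about 0.047.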
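Also: Bxb1 expression induced with 0.2% (w/v) L-rhamnose at OD600 near 0.5, cultures sampled hourly, flipped fraction per protease–substrate barcode pair counted by paired-end Illumina sequencing.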

Q: With MGESLFKGPRDYNPISSSICHLTNESDGHTTSLYGIGFGPFIITNKHLFRRNNGTLVVQSLHGVFKVKDTTTLQQHLVDGRVMIIIRMPKDFPPFPQKLKFREPQREERICLVTTNFQTKSMSSMVSDTSCTFPSGDGIFWKHWIQTKDGQCGSPLVSTRDGFIVGIHSASNFTNTNNYFTSVPKNFMELLTNQEAQQWVSGWRLNADSVLWGGHKVFMVKPEEPFQPVKEATQL [D82V] as the variant, how does the “area with substrate ENLFFQS” value read?
A: The value was 0.0574.

Q: What about the “area with substrate ENLHFQS” value of the same variant?
A: The value was 0.0799.

Q: What about the “area with substrate ENLKFQS” value of the same variant?
A: The value was 0.0584.

Q: What about the “area with substrate ENLNFQS” value of the same variant?
A: Its value is 0.0132.

Q: What about the “area with substrate ENLPFQS” value of the same variant?
A: Its value is 0.0549.

Q: What about the “area with substrate ENLQFQS” value of the same variant?
A: Its value is 0.0267.

Q: What about the “area with substrate ENLRFQS” value of the same variant?
A: Its value is 0.0701.

Q: What about the “area with substrate ENLWFQS” value of the same variant?
A: The value was 0.0503.

Q: Which “area with substrate ENLFFQS” value does the source give for MGESLFKGPRDYNPISSSICHLTNESDGHTTSLYGIGFGPFIITNKHLFRRNNGTLVVQSLHGVFKVKDTTTLQQHLVDGRDMIIIQMPKDFPPFPQKLKFREPQREERICLVTTNFQTKSMSSMVSDTSCTFPSGDGIFWKHWIQTKDGQCGSPLVSTRDGFIVGIHSASNFTNTNNYFTSVPKNFMELLTNQEAQQWVSGWRLNADSVLWGGHKVFMVKPEEPFQPVKEATQL [R87Q] here?
A: Its value is 0.0206.

Q: What about the “area with substrate ENLLFQS” value of the same variant?
A: The value was 0.0809.

Q: What about the “area with substrate ENLQFQS” value of the same variant?
A: The value was 0.0559.

Q: What about the “area with substrate ENLRFQS” value of the same variant?
A: The value was 0.0988.

Q: And the “area with substrate ENLSFQS” value?
A: Its value is 0.0487.

Q: What about the “area with substrate ENLVFQS” value of the same variant?
A: Its value is 0.0844.

Q: What does the source list for MGESLFKGPRDYNPISSSICHLTNESDGHTTSLYGIGFGPFIITNKHLFRRNNGTLVVQSLHGVFKVKDTTTLQQHLVDGRDMIIIRMPKMFPPFPQKLKFREPQREERICLVTTNFQTKSMSSMVSDTSCTFPSGDGIFWKHWIQTKDGQCGSPLVSTRDGFIVGIHSASNFTNTNNYFTSVPKNFMELLTNQEAQQWVSGWRLNADSVLWGGHKVFMVKPEEPFQPVKEATQL [D91M]?
A: area with substrate ENLFFQS: 0.0818; area with substrate ENLIFQS: 0.0772; area with substrate ENLKFQS: 0.0869; area with substrate ENLPFQS: 0.0544; area with substrate ENLSFQS: 0.0668; area with substrate ENLTFQS: 0.007; area with substrate ENLVFQS: 0.0777

Q: For MGESLFKGPRDYNPISSSICHLTNESDGHTTSLYGIGFGPFIITNKHLFRRNNGTLVVQSLHGVFKVKDTTTLQQHLVDGRDMIIIRMPKDFLPFPQKLKFREPQREERICLVTTNFQTKSMSSMVSDTSCTFPSGDGIFWKHWIQTKDGQCGSPLVSTRDGFIVGIHSASNFTNTNNYFTSVPKNFMELLTNQEAQQWVSGWRLNADSVLWGGHKVFMVKPEEPFQPVKEATQL [P93L], which “area with substrate ENLFFQS” value is on record?
A: Its value is 0.095.

Q: And the “area with substrate ENLKFQS” value?
A: The value was 0.0719.

Q: What about the “area with substrate ENLLFQS” value of the same variant?
A: Its value is 0.0904.

Q: What about the “area with substrate ENLNFQS” value of the same variant?
A: The value was 0.0749.

Q: And the “area with substrate ENLSFQS” value?
A: Its value is 0.059.

Q: With MGESLFKGPRDYNPISSSICHLTNESDGHTTSLYGIGFGPFIITNKHLFRRNNGTLVVQSLHGVFKVKDTTTLQQHLVDGRDMIIIRMPKDFPPFPQKLKFREPQREERICLVTTVFQTKSMSSMVSDTSCTFPSGDGIFWKHWIQTKDGQCGSPLVSTRDGFIVGIHSASNFTNTNNYFTSVPKNFMELLTNQEAQQWVSGWRLNADSVLWGGHKVFMVKPEEPFQPVKEATQL [N116V] as the variant, how does the “area with substrate ENLFFQS” value read?
A: The value was 0.0836.

Q: What about the “area with substrate ENLGFQS” value of the same variant?
A: Its value is 0.0617.

Q: And the “area with substrate ENLHFQS” value?
A: The value was 0.0827.

Q: What about the “area with substrate ENLKFQS” value of the same variant?
A: Its value is 0.0644.

Q: What about the “area with substrate ENLMFQS” value of the same variant?
A: Its value is 0.0628.

Q: And the “area with substrate ENLNFQS” value?
A: The value was 0.0618.

Q: And the “area with substrate ENLQFQS” value?
A: Its value is 0.0667.

Q: And the “area with substrate ENLRFQS” value?
A: Its value is 0.0547.

Q: What does the source list for MGESLFKGPRDYNPISSSICHLTNESDGHTTSLYGIGFGPFIITNKHLFRRNNGTLVVQSLHGVFKVKDTTTLQQHLVDGRDMIIIRMPKDFPPFPQKLKFREPQREERICLVTTNFLTKSMSSMVSDTSCTFPSGDGIFWKHWIQTKDGQCGSPLVSTRDGFIVGIHSASNFTNTNNYFTSVPKNFMELLTNQEAQQWVSGWRLNADSVLWGGHKVFMVKPEEPFQPVKEATQL [Q118L]?
A: area with substrate ENLFFQS: 0.0833; area with substrate ENLLFQS: 0.0598; area with substrate ENLMFQS: 0.08; area with substrate ENLNFQS: 0.0688; area with substrate ENLVFQS: 0.215; area with substrate ENLWFQS: 0.0807

Q: Which “area with substrate ENLFFQS” value does the source give for MGESLFKGPRDYNPISSSICHLTNESDGHTTSLYGIGFGPFIITNKHLFRRNNGTLVVQSLHGVFKVKDTTTLQQHLVDGRDMIIIRMPKDFPPFPQKLKFREPQREERICLVTTNFQQKSMSSMVSDTSCTFPSGDGIFWKHWIQTKDGQCGSPLVSTRDGFIVGIHSASNFTNTNNYFTSVPKNFMELLTNQEAQQWVSGWRLNADSVLWGGHKVFMVKPEEPFQPVKEATQL [T119Q] here?
A: Its value is 0.0936.

Q: And the “area with substrate ENLNFQS” value?
A: Its value is 0.0785.

Q: And the “area with substrate ENLQFQS” value?
A: Its value is 0.0826.

Q: What about the “area with substrate ENLWFQS” value of the same variant?
A: Its value is 0.0647.

Q: Which results are given for MGESLFKGPRDYNPISSSICHLTNESDGHTTSLYGIGFGPFIITNKHLFRRNNGTLVVQSLHGVFKVKDTTTLQQHLVDGRDMIIIRMPKDFPPFPQKLKFREPQREERICLVTTNFQRKSMSSMVSDTSCTFPSGDGIFWKHWIQTKDGQCGSPLVSTRDGFIVGIHSASNFTNTNNYFTSVPKNFMELLTNQEAQQWVSGWRLNADSVLWGGHKVFMVKPEEPFQPVKEATQL [T119R]?
A: area with substrate ENLFFQS: 0.0755; area with substrate ENLKFQS: 0.0803; area with substrate ENLVFQS: 0.0936

Q: With MGESLFKGPRDYNPISSSICHLTNESDGHTTSLYGIGFGPFIITNKHLFRRNNGTLVVQSLHGVFKVKDTTTLQQHLVDGRDMIIIRMPKDFPPFPQKLKFREPQREERICLVTTNFQTKSMSSMVSDTSPTFPSGDGIFWKHWIQTKDGQCGSPLVSTRDGFIVGIHSASNFTNTNNYFTSVPKNFMELLTNQEAQQWVSGWRLNADSVLWGGHKVFMVKPEEPFQPVKEATQL [C131P] as the variant, how does the “area with substrate ENLFFQS” value read?
A: Its value is 0.0809.

Q: And the “area with substrate ENLIFQS” value?
A: The value was 0.0778.

Q: What about the “area with substrate ENLKFQS” value of the same variant?
A: The value was 0.0982.

Q: And the “area with substrate ENLNFQS” value?
A: The value was 0.0749.

Q: And the “area with substrate ENLTFQS” value?
A: The value was 0.0579.

Q: With MGESLFKGPRDYNPISSSICHLTNESDGHTTSLYGIGFGPFIITNKHLFRRNNGTLVVQSLHGVFKVKDTTTLQQHLVDGRDMIIIRMPKDFPPFPQKLKFREPQREERICLVTTNFQTKSMSSMVSDTSCTFPSGSGIFWKHWIQTKDGQCGSPLVSTRDGFIVGIHSASNFTNTNNYFTSVPKNFMELLTNQEAQQWVSGWRLNADSVLWGGHKVFMVKPEEPFQPVKEATQL [D137S] as the variant, how does the “area with substrate ENLFFQS” value read?
A: Its value is 0.0709.

Q: What about the “area with substrate ENLPFQS” value of the same variant?
A: Its value is 0.0592.

Q: What about the “area with substrate ENLQFQS” value of the same variant?
A: The value was 0.0686.

Q: And the “area with substrate ENLSFQS” value?
A: Its value is 0.0839.

Q: And the “area with substrate ENLWFQS” value?
A: Its value is 0.058.

Q: Which “area with substrate ENLFFQS” value does the source give for MGESLFKGPRDYNPISSSICHLTNESDGHTTSLYGIGFGPFIITNKHLFRRNNGTLVVQSLHGVFKVKDTTTLQQHLVDGRDMIIIRMPKDFPPFPQKLKFREPQREERICLVTTNFQTKSMSSMVSDTSCTFPSGDFIFWKHWIQTKDGQCGSPLVSTRDGFIVGIHSASNFTNTNNYFTSVPKNFMELLTNQEAQQWVSGWRLNADSVLWGGHKVFMVKPEEPFQPVKEATQL [G138F] here?
A: Its value is 0.0837.

Q: What about the “area with substrate ENLIFQS” value of the same variant?
A: Its value is 0.109.

Q: And the “area with substrate ENLKFQS” value?
A: Its value is 0.0674.

Q: And the “area with substrate ENLLFQS” value?
A: Its value is 0.0796.
